Seven substances from article PMC4576195 can be followed below.

Sequences of proteins named here, by UniProt entry; tags and fusion partners are left off. A change or cut given only in a name is not applied to a line headed by its entry.
UniProt P14635: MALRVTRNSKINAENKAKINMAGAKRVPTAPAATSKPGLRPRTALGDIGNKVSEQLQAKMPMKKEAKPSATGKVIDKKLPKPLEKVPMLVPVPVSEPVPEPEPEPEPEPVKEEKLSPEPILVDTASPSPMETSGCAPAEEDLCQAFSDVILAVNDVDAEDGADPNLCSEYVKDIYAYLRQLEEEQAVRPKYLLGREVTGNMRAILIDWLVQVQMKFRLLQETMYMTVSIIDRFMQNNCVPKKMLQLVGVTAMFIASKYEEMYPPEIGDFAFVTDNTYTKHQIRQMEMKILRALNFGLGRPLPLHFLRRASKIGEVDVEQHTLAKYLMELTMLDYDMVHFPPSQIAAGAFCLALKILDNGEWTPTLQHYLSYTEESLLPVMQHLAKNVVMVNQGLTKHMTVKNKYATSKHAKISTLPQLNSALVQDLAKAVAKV
UniProt P16788: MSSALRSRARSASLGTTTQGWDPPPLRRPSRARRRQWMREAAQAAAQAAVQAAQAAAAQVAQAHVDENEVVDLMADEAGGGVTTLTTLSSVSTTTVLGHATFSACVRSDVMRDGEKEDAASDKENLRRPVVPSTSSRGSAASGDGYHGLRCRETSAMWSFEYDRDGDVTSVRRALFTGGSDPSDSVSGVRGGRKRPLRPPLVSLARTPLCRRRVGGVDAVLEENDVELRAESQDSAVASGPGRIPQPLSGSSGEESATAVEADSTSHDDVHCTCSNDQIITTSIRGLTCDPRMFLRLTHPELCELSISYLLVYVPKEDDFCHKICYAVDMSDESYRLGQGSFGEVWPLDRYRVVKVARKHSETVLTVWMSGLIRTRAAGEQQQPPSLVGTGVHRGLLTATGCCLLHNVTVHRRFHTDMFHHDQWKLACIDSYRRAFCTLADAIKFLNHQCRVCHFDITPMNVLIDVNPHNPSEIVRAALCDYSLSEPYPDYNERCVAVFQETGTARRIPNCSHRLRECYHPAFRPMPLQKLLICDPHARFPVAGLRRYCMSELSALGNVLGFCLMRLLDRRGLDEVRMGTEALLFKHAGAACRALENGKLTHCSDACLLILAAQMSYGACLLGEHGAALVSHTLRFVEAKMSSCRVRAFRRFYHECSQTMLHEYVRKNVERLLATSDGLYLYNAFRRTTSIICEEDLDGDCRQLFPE
UniProt O60563: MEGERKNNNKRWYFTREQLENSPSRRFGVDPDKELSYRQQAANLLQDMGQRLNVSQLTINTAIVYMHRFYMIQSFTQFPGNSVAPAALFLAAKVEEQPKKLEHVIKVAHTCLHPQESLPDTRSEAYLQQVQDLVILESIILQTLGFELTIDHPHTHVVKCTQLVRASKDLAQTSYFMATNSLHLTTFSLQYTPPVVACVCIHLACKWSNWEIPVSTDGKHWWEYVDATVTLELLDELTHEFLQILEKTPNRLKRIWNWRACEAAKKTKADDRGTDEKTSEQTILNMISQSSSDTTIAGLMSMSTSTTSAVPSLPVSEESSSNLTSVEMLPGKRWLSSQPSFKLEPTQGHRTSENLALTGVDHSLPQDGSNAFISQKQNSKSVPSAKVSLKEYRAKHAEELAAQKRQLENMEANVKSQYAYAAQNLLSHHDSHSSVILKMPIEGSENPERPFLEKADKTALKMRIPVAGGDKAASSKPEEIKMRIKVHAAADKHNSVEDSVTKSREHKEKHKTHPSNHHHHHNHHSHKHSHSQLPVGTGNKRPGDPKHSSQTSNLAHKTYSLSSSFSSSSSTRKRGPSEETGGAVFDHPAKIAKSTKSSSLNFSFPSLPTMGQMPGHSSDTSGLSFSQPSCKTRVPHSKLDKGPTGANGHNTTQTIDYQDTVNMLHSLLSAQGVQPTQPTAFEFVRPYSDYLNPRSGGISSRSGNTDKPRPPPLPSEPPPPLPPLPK

Holding throughout (assay): co-IP
The target in experiment [1] is endogenous cyclin B1 (293T cells) (human (endogenous in 293T)) (UniProt P14635).
For experiment [2], the target named is pUL97-HA (human cytomegalovirus (HCMV)) (UniProt P16788).
The target in experiment [3] is endogenous cyclin T1 (293T cells) (human (endogenous in 293T)) (UniProt O60563).

Results are given in words; binding and its absence hold for the method and conditions named. Binding seen in cells or lysates may run through a third protein. Some entries that bind do so weakly or less than the wild type.

On to “pUL97 isoform M74 (middle isoform), from pUL97-Flag (from UniProt P16788 74-707) (enzyme)”, for which the binding result in experiment [1] was “binds”. Turning to “pUL97(1-595)-Flag (from UniProt P16788 1-595) (domain or fragment)”, the binding entry in experiment [1] and in experiment [2] was “no binding” throughout. Consider “pUL97(1-657)-Flag (from UniProt P16788 1-657) (domain or fragment)”, for which the binding result in experiment [1] and in experiment [2] was “no binding” throughout. With “pUL97(1-692)-Flag (from UniProt P16788 1-692) (domain or fragment)”, the binding result in experiment [1] and in experiment [2] was “no binding” throughout.

For the substance “pUL97(1-702)-Flag (from UniProt P16788 1-702) (domain or fragment)”, the binding result in experiment [1] and in experiment [2] was “no binding” throughout.

Consider “pUL97(1-706)-Flag (from UniProt P16788 1-706) (domain or fragment)”, for which the binding entry in experiment [1] and in experiment [2] was “binds” each time. On to “pUL97-Flag, full-length pUL97(1-707) (from UniProt P16788 1-707) (enzyme)”, for which the binding entry in experiment [3] and in experiment [2] was “binds” in each case.
